Measured values published in PubChem BioAssay AID488969 (Vanderbilt High Throughput Screening Facility, 2010).
Whole data set: some 110,000 compounds, median “z-score” near -0.1, cut for the highest 2% near 2. The list shows a part of the results. Residues, ends and D or L forms follow the SMILES beside them. *: point of attachment. Boc = CC(C)(C)OC(=O)*

What follows are molecules tested against Metabotropic glutamate receptor 8 (Rattus norvegicus) (UniProt P70579) (assay: mGluR8 Gi/Go-coupled signaling modulation – cell-based, rat, thallium flux, HTS, primary screen (AID 488969)). Conditions: HEK293 rat mGluR8, GIRK (G protein-gated inwardly rectifying potassium channel) thallium flux, FluoZin2; at 10 µM; stronger effect = higher value; submaximal glutamate (EC20) added with thallium.
Chain of UniProt P70579 (P70579 whole entry, looked up): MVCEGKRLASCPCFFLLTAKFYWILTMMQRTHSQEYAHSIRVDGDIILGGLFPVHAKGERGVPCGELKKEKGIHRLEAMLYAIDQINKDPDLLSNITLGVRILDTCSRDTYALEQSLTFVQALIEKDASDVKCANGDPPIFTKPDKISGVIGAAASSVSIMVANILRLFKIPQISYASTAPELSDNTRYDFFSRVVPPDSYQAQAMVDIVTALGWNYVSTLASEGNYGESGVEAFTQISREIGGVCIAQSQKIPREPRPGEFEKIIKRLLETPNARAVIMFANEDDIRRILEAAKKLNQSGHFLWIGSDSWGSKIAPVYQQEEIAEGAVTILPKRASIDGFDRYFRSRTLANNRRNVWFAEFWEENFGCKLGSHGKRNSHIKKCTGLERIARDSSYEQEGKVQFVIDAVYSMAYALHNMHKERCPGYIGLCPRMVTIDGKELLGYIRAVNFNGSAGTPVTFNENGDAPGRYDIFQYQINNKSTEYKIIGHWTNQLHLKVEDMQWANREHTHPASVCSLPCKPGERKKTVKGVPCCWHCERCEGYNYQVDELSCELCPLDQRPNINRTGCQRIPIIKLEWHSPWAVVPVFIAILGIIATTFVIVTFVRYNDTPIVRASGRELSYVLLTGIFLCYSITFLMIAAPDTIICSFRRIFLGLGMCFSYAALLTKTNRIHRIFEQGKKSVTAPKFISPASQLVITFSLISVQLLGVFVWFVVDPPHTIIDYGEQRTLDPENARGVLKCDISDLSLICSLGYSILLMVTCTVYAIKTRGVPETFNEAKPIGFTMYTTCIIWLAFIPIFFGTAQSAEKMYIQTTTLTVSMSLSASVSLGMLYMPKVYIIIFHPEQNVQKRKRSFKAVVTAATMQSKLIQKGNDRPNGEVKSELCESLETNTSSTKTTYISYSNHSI

Structure (SMILES) | z-score
CC1=CC2=NC(=O)/C(=C\c3cc(C)n(-c4ccc(F)cc4)c3C)C(=N)N2O1 | -0.0835
CC(C)CC(NC(=O)OC(C)(C)C)C(=O)NC(C(=O)NC(C)C(N)=O)C(C)C (stereo not drawn) (Boc-Leu-Val-Ala-NH2; configuration not given here) | 0.264
O=C(NCCc1csc(-c2cccnc2)n1)c1ccco1 | 0.0644
Cc1ccc(/C=C2\SC(=S)N(CCC(=O)NNC(=O)c3cccnc3)C2=O)cc1 | -0.628
Cc1ccc(NC2=C(Cl)C(=O)c3ccccc3C2=O)cc1 | -0.618
Cc1ccc(C(=O)NCCCN2CCOCC2)cc1N1CCCC1=O | -1.33
O=C(OCc1cc2ccccc2[nH]c1=O)c1ccncc1 | -0.917
CC(C)CC(=O)NC1(C(F)(F)F)C(=O)Nc2c1c(=O)n(C)c(=O)n2C (stereo not given) | 0.339
CCN(CC)c1ccc(N=Cc2ccc(N(CC)CC)cc2O)cc1 | 0.0973
Cc1cc(C)n2nc(SCc3nc4ccccc4[nH]3)nc2n1 | -0.307
C=CCn1c(SCC(=O)N2CCN(c3ccc(F)cc3)CC2)nnc1-c1cccs1 | -0.652
CC(C)(C)c1ccc(S(=O)(=O)CC(O)CSc2nc3c(cc2C#N)CCCC3)cc1 (stereo not given) | -0.146
Oc1cccc(-c2nc3ccccc3s2)c1 | 0.361
CCNC(=S)Nc1ccc(Cl)cc1 | -0.278
Cc1cnc(C(=O)Nc2nc(-c3ccccc3)cs2)cn1 | 0.227
CC(C)(C)c1ccc(C(=O)NCC(=O)OCC(=O)Nc2ccc3c(c2)OCCO3)cc1 | 0.131
CC1CC2=C(NC(=S)NC2c2ccc(F)cc2)/C(=C/c2ccc(F)cc2)C1 (stereo not given) | -0.0718
S=c1[nH]nc(-c2cnccn2)n1-c1ccccc1 | 0.496
COC(=O)c1sc(N)c(C(=O)OC)c1COC(=O)CNS(=O)(=O)c1ccc(C)c(C)c1 | -0.386
CCOC(=O)n1c(=O)oc2ccccc21 | -0.195
Oc1ccc2ccccc2c1CN1CCN(c2ccccc2)CC1 | -0.548
O=C(Nc1ccccc1)c1ccc2nsnc2c1 | -0.000294
O=C1C=C(NCc2ccc(Cl)cc2Cl)C2(CCCCC2)O1 | -0.359
COC(=O)c1ccc(C(=O)OC)c(NC(=O)COC(=O)CC2CC3CCC2C3)c1 (stereo not given) | -0.338

Structure (SMILES) | z-score
CCOC(=O)N1CCC(NC(=O)c2cccc3c2C(=O)N(CCOC)C3)CC1 | -0.296
CC1(C)Cc2ccccc2-c2nnc(SCc3ccc(C#N)cc3)n21 | -0.168
CCCCNC(=O)c1ccc(Cn2c(=S)[nH]c3c([nH]c4ccc(OC)cc43)c2=O)cc1 | -0.139
CCOc1ccc(-c2cc(C(=O)NCC3CCCO3)c3ccccc3n2)cc1 (stereo not given) | -0.12
COc1ccc(C(=O)COC(=O)CCn2nnc(-c3cccs3)n2)cc1 | 0.141
C/C(=N\NS(=O)(=O)c1cccc([N+](=O)[O-])c1)c1cc2ccccc2o1 | -0.274
COc1cccc(N2C(=O)C(Cc3c[nH]c4ccccc34)NC2=S)c1 (stereo not given) | -0.229
C=CCSc1nnc(NC(=O)CSc2nc3ccccc3[nH]2)s1 | -0.258
COc1ccc(C(=O)c2ccc(N(C)C)cc2)c(OC)c1 | -0.297
Cn1nc(C(=O)Nc2nc3ccc(S(C)(=O)=O)cc3s2)ccc1=O | -0.896
CC(O)(C#CCN1CCOCC1)c1ccccc1 (stereo not given) | -0.413
Cc1cccnc1NC(=O)C12CCC(C)(C(=O)O1)C2(C)C (stereo not given) | 0.266
COc1ccnc(Nc2cccc(C)c2)c1C#N | -0.0324
CCOc1ccc(NC(=O)CCC(=O)n2nc(C)cc2C)cc1 | -0.163
CN(C)CCN(C(=O)c1ccccc1Cl)c1nc2c(Cl)cccc2s1 | -0.8
O/N=C1\CCC\C1=C/c1ccco1 | 0.461
COc1ccc2nc(NC(=O)C3CCN(S(=O)(=O)c4cccnc4)CC3)sc2c1 | -0.396
O=[N+]([O-])c1cccnc1N1CCC(c2cc(-c3ccc(Cl)cc3Cl)n[nH]2)CC1 | -0.166
CCOC(=O)c1sc(NS(=O)(=O)c2ccc(C)cc2)nc1C | -0.406
CC(C)OC(=O)NCN1C(=O)C2C3C=CC(C3)C2C1=O (stereo not given) | 0.436
O=C1CC(N(Cc2ccc3c(c2)OCO3)C(=O)Nc2ccc(F)cc2)C(=O)N1c1ccccc1 (stereo not given) | -0.162
Cc1ccc(-n2c3nc(=O)[nH]c(=O)c-3cc3cc([N+](=O)[O-])ccc32)cc1 | -0.767
COc1ccc(CNC(=O)NC(C)(C)c2cccc(C(C)(C)NC(=O)NCc3ccc(OC)cc3)c2)cc1 | -0.759
O=C(CN1C(=O)NC2(CCCCC2)C1=O)NCc1cccs1 | 0.496

Structure (SMILES) | z-score
COc1ccc(NC(=O)CSc2nc3ncccc3[nH]2)cc1OC | -0.426
Cc1csc(SCC(=O)c2c(N)n(C)c(=O)n(C)c2=O)n1 | -0.529
CCOC(=O)c1ccccc1NS(=O)(=O)c1ccc(OC)cc1 | -0.146
Cc1cc2c(cc1C)[n+](C)cn2CC(O)COCc1ccccc1 (stereo not given) | -0.104
O=C(CNC(=S)N(CCCN1CCOCC1)Cc1cccs1)N1CCOCC1 | -0.293
O=c1c2ccccc2nnn1CSc1nnc(-c2cccnc2)n1-c1ccccc1F | -0.219
COc1cc(CNC(C)(C)CO)cc(Br)c1OCc1ccc(Cl)cc1Cl | 0.447
O=C1c2ccccc2C(=O)N1OCc1ccccc1 | -0.335
Cc1c(NC(=S)NC(=O)c2cc3ccccc3o2)c(=O)n(-c2ccccc2)n1C | -0.114
Cc1cc(/C=C(\C#N)C(=O)NCC2CCCO2)c(C)n1-c1ccc(Cl)cc1 (stereo not given) | -0.63
N#Cc1nc(Cc2ccccc2)oc1NCc1cccnc1 | 0.17
CCN(CC)Cc1cc(CCNC(=O)c2ccc(Cl)cc2)ccc1O | 0.602
COc1ccc(Nc2ncccc2C(=O)Nc2ccccc2)cc1 | 0.0827
CCCCCC(=O)Nc1ccc2ccccc2c1 | -0.136
CNC(=S)N/N=C/c1cccc(OCc2ccccc2F)c1 | 0.523
COc1ccc(C(=O)Nc2sc(C)c(-c3ccccc3)c2C#N)cc1OC | -0.228
Cc1ccccc1C(=O)c1cccn1CC(=O)NCC1CCCO1 (stereo not given) | -0.18
COc1ccc(C(C)=O)cc1CSc1nncn1-c1ccccc1 | -0.205
O=C(Nc1ccc([N+](=O)[O-])cc1)c1nc[nH]c1C(=O)NC1CCCCC1 | -0.0461
CCN(CC)CCNC(=O)c1ccc(N2CCCCC2)c(NS(=O)(=O)c2ccc(C)cc2)c1 | 2.96
O=C(OC1CCCCC1)c1ccc(NC(=O)C2CCCCC2)cc1 | 0.0485
COC(=O)c1ccc(NC(=O)COc2ccc(C3C(C#N)=C(N)Oc4c3ccc3ccccc43)cc2OC)cc1 (stereo not given) | -0.108
